{"source": "the supplement of paper PMC8728848", "binders": {"B1": {"name": "CGL (Crenomytilus grayanus), H2FH31 (protein)", "chain": "MTTFLIKHKASGKFLHPYGGSSNPANNTKLVLHSDIHERMYFQFDVVDERWGYIKHVASGKIVHPYGGQANPPNETNMVLHQDRHDRALFAMDFFNDNIMHKGGKYIHPKGGSPNPPNNTETVIHGDKHAAMEFIFVSPKNKDKRVLVYA"}}, "experiment_in_all_cases": "glycan array binding signal (z-score within array); higher = stronger binding", "conditions_in_all_cases": "glycan notation: IUPAC condensed, linker removed", "key": {"[1]": {"molecular_target": "Neu5Ac(a2-3)Gal(b1-3)]Neu5Ac(a2-3)Gal(b1-4)]GlcNAc", "method_in_brief": "(§1)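 Columns mapping to the same glycan were averaged after glycan names were converted to IUPAC-condensed notation. The data come from 3228 arrays in the Consortium for Functional Glycomics database, limited to those with an available protein sequence. Binding is reported as a within-array Z-score averaged across arrays of one protein sequence and across linkers.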"}, "[2]": {"molecular_target": "Neu5Ac(a2-3)Gal(b1-4)Glc", "method_in_brief": "as §1"}, "[3]": {"molecular_target": "Neu5Ac(a2-3)Gal(b1-4)GlcNAc", "method_in_brief": "as §1"}, "[4]": {"molecular_target": "Neu5Ac(a2-3)Gal(b1-4)GlcNAc(b1-2)Man", "method_in_brief": "as §1"}, "[5]": {"molecular_target": "Neu5Ac(a2-3)Gal(b1-4)GlcNAc(b1-2)Man(a1-3)[GlcNAc(b1-4)][Neu5Ac(a2-3)Gal(b1-4)GlcNAc(b1-2)Man(a1-6)]Man(b1-4)GlcNAc(b1-4)GlcNAc", "method_in_brief": "as §1"}, "[6]": {"molecular_target": "Neu5Ac(a2-3)Gal(b1-4)GlcNAc(b1-2)Man(a1-3)[Neu5Ac(a2-3)Gal(b1-4)GlcNAc(b1-2)Man(a1-6)]Man(b1-4)GlcNAc(b1-4)GlcNAc", "method_in_brief": "as §1"}, "[7]": {"molecular_target": "Neu5Ac(a2-3)Gal(b1-4)GlcNAc(b1-2)Man(a1-3)[Neu5Ac(a2-3)Gal(b1-4)GlcNAc(b1-2)Man(a1-6)]Man(b1-4)GlcNAc(b1-4)[Fuc(a1-6)]GlcNAc", "method_in_brief": "as §1"}, "[8]": {"molecular_target": "Neu5Ac(a2-3)Gal(b1-4)GlcNAc(b1-2)Man(a1-3)[Neu5Ac(a2-6)Gal(b1-4)GlcNAc(b1-2)Man(a1-6)]Man(b1-4)GlcNAc(b1-4)GlcNAc", "method_in_brief": "as §1"}, "[9]": {"molecular_target": "Neu5Ac(a2-3)Gal(b1-4)GlcNAc(b1-2)[Neu5Ac(a2-3)Gal(b1-4)GlcNAc(b1-4)]Man(a1-3)[GlcNAc(b1-4)][Neu5Ac(a2-3)Gal(b1-4)GlcNAc(b1-2)[Neu5Ac(a2-3)Gal(b1-4)GlcNAc(b1-6)]Man(a1-6)]Man(b1-4)GlcNAc(b1-4)GlcNAc", "method_in_brief": "as §1"}, "[10]": {"molecular_target": "Neu5Ac(a2-3)Gal(b1-4)GlcNAc(b1-2)[Neu5Ac(a2-3)Gal(b1-4)GlcNAc(b1-4)]Man(a1-3)[GlcNAc(b1-4)][Neu5Ac(a2-3)Gal(b1-4)GlcNAc(b1-4)Man(a1-6)]Man(b1-4)GlcNAc(b1-4)GlcNAc", "method_in_brief": "as §1"}, "[11]": {"molecular_target": "Neu5Ac(a2-3)Gal(b1-4)GlcNAc(b1-2)[Neu5Ac(a2-3)Gal(b1-4)GlcNAc(b1-6)]Man(a1-6)[Neu5Ac(a2-3)Gal(b1-4)GlcNAc(b1-2)Man(a1-3)][GlcNAc(b1-4)]Man(b1-4)GlcNAc(b1-4)GlcNAc", "method_in_brief": "as §1"}, "[12]": {"molecular_target": "Neu5Ac(a2-3)Gal(b1-4)GlcNAc(b1-3)Gal", "method_in_brief": "as §1"}, "[13]": {"molecular_target": "Neu5Ac(a2-3)Gal(b1-4)GlcNAc(b1-3)Gal(b1-3)GlcNAc", "method_in_brief": "as §1"}, "[14]": {"molecular_target": "Neu5Ac(a2-3)Gal(b1-4)GlcNAc(b1-3)Gal(b1-4)GlcNAc", "method_in_brief": "as §1"}, "[15]": {"molecular_target": "Neu5Ac(a2-3)Gal(b1-4)GlcNAc(b1-3)Gal(b1-4)GlcNAc(b1-2)Man(a1-3)[Neu5Ac(a2-3)Gal(b1-4)GlcNAc(b1-3)Gal(b1-4)GlcNAc(b1-2)Man(a1-6)]Man(b1-4)GlcNAc(b1-4)GlcNAc", "method_in_brief": "as §1"}, "[16]": {"molecular_target": "Neu5Ac(a2-3)Gal(b1-4)GlcNAc(b1-3)Gal(b1-4)GlcNAc(b1-3)Gal(b1-4)GlcNAc", "method_in_brief": "as §1"}, "[17]": {"molecular_target": "Neu5Ac(a2-3)Gal(b1-4)GlcNAc(b1-3)Gal(b1-4)GlcNAc(b1-3)Gal(b1-4)GlcNAc(b1-2)Man(a1-3)[Neu5Ac(a2-3)Gal(b1-4)GlcNAc(b1-3)Gal(b1-4)GlcNAc(b1-3)Gal(b1-4)GlcNAc(b1-2)Man(a1-6)]GalNAc", "method_in_brief": "as §1"}, "[18]": {"molecular_target": "Neu5Ac(a2-3)Gal(b1-4)GlcNAc(b1-3)Gal(b1-4)GlcNAc(b1-3)GalNAc", "method_in_brief": "as §1"}, "[19]": {"molecular_target": "Neu5Ac(a2-3)Gal(b1-4)GlcNAc(b1-3)Gal(b1-4)GlcNAc(b1-3)[Neu5Ac(a2-3)Gal(b1-4)GlcNAc(b1-3)Gal(b1-4)GlcNAc(b1-6)]GalNAc", "method_in_brief": "as §1"}, "[20]": {"molecular_target": "Neu5Ac(a2-3)Gal(b1-4)GlcNAc(b1-3)Gal(b1-4)GlcNAc(b1-6)[Gal(b1-3)]GalNAc", "method_in_brief": "as §1"}, "[21]": {"molecular_target": "Neu5Ac(a2-3)Gal(b1-4)GlcNAc(b1-3)Gal(b1-4)[Fuc(a1-3)]GlcNAc", "method_in_brief": "as §1"}, "[22]": {"molecular_target": "Neu5Ac(a2-3)Gal(b1-4)GlcNAc(b1-3)GalNAc", "method_in_brief": "as §1"}, "[23]": {"molecular_target": "Neu5Ac(a2-3)Gal(b1-4)GlcNAc(b1-3)[Neu5Ac(a2-3)Gal(b1-4)GlcNAc(b1-6)]GalNAc", "method_in_brief": "as §1"}, "[24]": {"molecular_target": "Neu5Ac(a2-3)Gal(b1-4)GlcNAc(b1-6)GalNAc", "method_in_brief": "as §1"}, "[25]": {"molecular_target": "Neu5Ac(a2-3)Gal(b1-4)GlcNAc(b1-6)[Gal(b1-3)]GalNAc", "method_in_brief": "as §1"}, "[26]": {"molecular_target": "Neu5Ac(a2-3)Gal(b1-4)GlcNAc(b1-6)[Neu5Ac(a2-3)Gal(b1-3)]GalNAc", "method_in_brief": "as §1"}, "[27]": {"molecular_target": "Neu5Ac(a2-3)Gal(b1-4)GlcNAc6S", "method_in_brief": "as §1"}, "[28]": {"molecular_target": "Neu5Ac(a2-3)Gal(b1-4)[Fuc(a1-3)]GlcNAc", "method_in_brief": "as §1"}, "[29]": {"molecular_target": "Neu5Ac(a2-3)Gal(b1-4)[Fuc(a1-3)]GlcNAc(b1-2)Man", "method_in_brief": "as §1"}, "[30]": {"molecular_target": "Neu5Ac(a2-3)Gal(b1-4)[Fuc(a1-3)]GlcNAc(b1-3)Gal", "method_in_brief": "as §1"}, "[31]": {"molecular_target": "Neu5Ac(a2-3)Gal(b1-4)[Fuc(a1-3)]GlcNAc(b1-3)Gal(b1-4)GlcNAc", "method_in_brief": "as §1"}, "[32]": {"molecular_target": "Neu5Ac(a2-3)Gal(b1-4)[Fuc(a1-3)]GlcNAc(b1-3)Gal(b1-4)[Fuc(a1-3)]GlcNAc(b1-3)Gal(b1-4)[Fuc(a1-3)]GlcNAc", "method_in_brief": "as §1"}, "[33]": {"molecular_target": "Neu5Ac(a2-3)Gal(b1-4)[Fuc(a1-3)]GlcNAc(b1-3)GalNAc", "method_in_brief": "as §1"}, "[34]": {"molecular_target": "Neu5Ac(a2-3)Gal(b1-4)[Fuc(a1-3)]GlcNAc(b1-6)[Gal(b1-3)]GalNAc", "method_in_brief": "as §1"}, "[35]": {"molecular_target": "Neu5Ac(a2-3)Gal(b1-4)[Fuc(a1-3)]GlcNAc(b1-6)[Neu5Ac(a2-3)Gal(b1-3)]GalNAc", "method_in_brief": "as §1"}, "[36]": {"molecular_target": "Neu5Ac(a2-3)Gal(b1-4)[Fuc(a1-3)]GlcNAc6S", "method_in_brief": "as §1"}, "[37]": {"molecular_target": "Neu5Ac(a2-3)Gal6S(b1-4)GlcNAc", "method_in_brief": "as §1"}, "[38]": {"molecular_target": "Neu5Ac(a2-3)Gal6S(b1-4)[Fuc(a1-3)]GlcNAc", "method_in_brief": "as §1"}}, "note": "The list shows a part of the results."}
{"binder": "B1", "values": [{"measurement": "glycan array binding signal (z-score)", "setting": "[1]", "result": -0.301}, {"measurement": "glycan array binding signal (z-score)", "setting": "[2]", "result": -0.344}, {"measurement": "glycan array binding signal (z-score)", "setting": "[3]", "result": -0.303}, {"measurement": "glycan array binding signal (z-score)", "setting": "[4]", "result": -0.261}, {"measurement": "glycan array binding signal (z-score)", "setting": "[5]", "result": -0.349}, {"measurement": "glycan array binding signal (z-score)", "setting": "[6]", "result": -0.323}, {"measurement": "glycan array binding signal (z-score)", "setting": "[7]", "result": -0.389}, {"measurement": "glycan array binding signal (z-score)", "setting": "[8]", "result": -0.439}, {"measurement": "glycan array binding signal (z-score)", "setting": "[9]", "result": -0.348}, {"measurement": "glycan array binding signal (z-score)", "setting": "[10]", "result": -0.331}, {"measurement": "glycan array binding signal (z-score)", "setting": "[11]", "result": -0.326}, {"measurement": "glycan array binding signal (z-score)", "setting": "[12]", "result": -0.435}, {"measurement": "glycan array binding signal (z-score)", "setting": "[13]", "result": -0.425}, {"measurement": "glycan array binding signal (z-score)", "setting": "[14]", "result": -0.25}, {"measurement": "glycan array binding signal (z-score)", "setting": "[15]", "result": -0.345}, {"measurement": "glycan array binding signal (z-score)", "setting": "[16]", "result": -0.356}, {"measurement": "glycan array binding signal (z-score)", "setting": "[17]", "result": -0.26}, {"measurement": "glycan array binding signal (z-score)", "setting": "[18]", "result": -0.286}, {"measurement": "glycan array binding signal (z-score)", "setting": "[19]", "result": -0.302}, {"measurement": "glycan array binding signal (z-score)", "setting": "[20]", "result": -0.35}, {"measurement": "glycan array binding signal (z-score)", "setting": "[21]", "result": -0.28}, {"measurement": "glycan array binding signal (z-score)", "setting": "[22]", "result": -0.272}, {"measurement": "glycan array binding signal (z-score)", "setting": "[23]", "result": -0.248}, {"measurement": "glycan array binding signal (z-score)", "setting": "[24]", "result": -0.43}, {"measurement": "glycan array binding signal (z-score)", "setting": "[25]", "result": -0.37}, {"measurement": "glycan array binding signal (z-score)", "setting": "[26]", "result": -0.386}, {"measurement": "glycan array binding signal (z-score)", "setting": "[27]", "result": -0.278}, {"measurement": "glycan array binding signal (z-score)", "setting": "[28]", "result": -0.389}, {"measurement": "glycan array binding signal (z-score)", "setting": "[29]", "result": -0.429}, {"measurement": "glycan array binding signal (z-score)", "setting": "[30]", "result": -0.349}, {"measurement": "glycan array binding signal (z-score)", "setting": "[31]", "result": -0.191}, {"measurement": "glycan array binding signal (z-score)", "setting": "[32]", "result": -0.448}, {"measurement": "glycan array binding signal (z-score)", "setting": "[33]", "result": -0.236}, {"measurement": "glycan array binding signal (z-score)", "setting": "[34]", "result": -0.345}, {"measurement": "glycan array binding signal (z-score)", "setting": "[35]", "result": -0.288}, {"measurement": "glycan array binding signal (z-score)", "setting": "[36]", "result": -0.328}, {"measurement": "glycan array binding signal (z-score)", "setting": "[37]", "result": -0.369}, {"measurement": "glycan array binding signal (z-score)", "setting": "[38]", "result": -0.428}]}
